This passage reports binding signal results from paper PMC12136788.

Sequences and labels used below:
T1: UNK ZnF1-3 (human, UniProt Q9C0B0 31-174)
T1 sequence: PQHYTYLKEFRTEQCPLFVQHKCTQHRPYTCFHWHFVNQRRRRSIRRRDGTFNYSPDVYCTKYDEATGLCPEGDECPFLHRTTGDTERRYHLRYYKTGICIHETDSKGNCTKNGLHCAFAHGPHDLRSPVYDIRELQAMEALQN

B1: chr8:104081237:104081238:+_ENSG00000155097_ENST00000518738|hu_mus|FALSE|FALSE (ssRNA)
RNA: GGGAGUUCUACAGUCCGACGAUCAACACACAGAAUUAUGCAUACCAUGAUAUCAAGGAGGAAAAUACCUCUUUAAAUAAACUAUUCUAUUUAUAAAUAAACUCUGAUUUUUUUCAGUACACAUUUACAGACCUGAUCAAUAAACAACAGAGGAUUGAGCAUCA
B2: chr1:220276048:220276049:+_ENSG00000067704_ENST00000302637|hu_hu|hu_hu_hu_mus_True|1_58 (ssRNA)
RNA: GGGAGUUCUACAGUCCGACGAUCGCAAAUUGCCUGGUUGGCGGGAAUUGUCCAAGGCUGGGUGGUCCAAACUAAAAUACUAACAGGGGAUGAGGCAUCUGUAAGAGACUCCAACUUCGGAGGAGGUCUCAGGAGGGGAAAUUUCAACAGAGGAUUGAGCAUCA
B3: chr4:140556289:140556290:+_ENSMUSG00000036622_ENSMUST00000037055|mus_mus|mus_mus_mus_hu_False|78_88 (ssRNA)
RNA: GGGAGUUCUACAGUCCGACGAUCGAUGGAGCUCACCAGGCCCCCUUUGGCUGUGCAGAACCCUGUCCGGGUCACCACUGCCAGGACGUGCGGUCCCACAUAGGCCCGGGCCUGCAAGAUGAGGGUCCCGCAGAAGAGUGUGUGCAACAGAGGAUUGAGCAUCA
B4: chr11:69803913:69803914:+_ENSMUSG00000018559_ENSMUST00000108593|mus_mus|FALSE|FALSE (ssRNA)
RNA: GGGAGUUCUACAGUCCGACGAUCCCCGAAACCCCAGUCCCCACCCACAGCCCAGCCCUUGGAGCAGGAGUGAAGAAUUAGAUCAGUUUUGUAUAAGAGUUUUUAAAAAAAUCAAAUCACAACAAAGUUGAAUUGGCUUCUUUUCAACAGAGGAUUGAGCAUCA
B5: chr7:150710151:150710152:-_ENSMUSG00000059119_ENSMUST00000072727|mus_hu|FALSE|FALSE (ssRNA)
RNA: GGGAGUUCUACAGUCCGACGAUCCACAGCCCGCGGGACUAUCCGCUCACGGAAAAAGUGUCCAAUUUCAAAAUCAGAGGCUAAUGUGAAUUCAGAAUCUUCAUCCAGUGAUUCUCCAUCCCCGGAUGCUUUCAAUGGAUUGAACAACAGAGGAUUGAGCAUCA
B6: chr12:133780691:133780692:+_ENSG00000090612_ENST00000541009|hu_hu|FALSE|FALSE (ssRNA)
RNA: GGGAGUUCUACAGUCCGACGAUCUCAUAUGGUUUUUCACCUGAAUGAGUUCUCAUGUGUAUAAUUAGGUAUGACUUGCUGCUAAAAGCUUUCCCACAUUCACUGCACCCAUAAGGCUUUUCCCCUGCAUGAGUUCGCUGAUGUCAACAGAGGAUUGAGCAUCA
B7: chr1:39494447:39494448:+_ENSG00000168653_ENST00000372967|hu_mus|hu_hu_hu_mus_False|18_88 (ssRNA)
RNA: GGGAGUUCUACAGUCCGACGAUCGCACCGAGCGGCGUUCUUAUAGGGCUGUUCACCGCUUAGGAACAUAAAGUGCCGGUCCAGGCUGAUGCCCAGCUUUUUCUGUAUGUCAAGGAAAGGCAUGGCCCUGCAGUGCCCUUGUCACAACAGAGGAUUGAGCAUCA
B8: chr1:225611761:225611762:-_ENSG00000143815_ENST00000272163|hu_mus|hu_hu_hu_mus_True|88_88 (ssRNA)
RNA: GGGAGUUCUACAGUCCGACGAUCCCAGGCCAUCGGCCUCUGACCACUUCACCAUCGACAAACUUCCUACUUGGCAUUUUCUAAAAUUAGUCUGGCCGCGCUCCGGCGGGAACUCCAGCCACUCCAGGACAGUCACCAGCAGCCCAACAGAGGAUUGAGCAUCA
B9: chr3:150289932:150289933:+_ENSG00000144895_ENST00000460851|hu_hu|hu_hu_hu_mus_False|98_98 (ssRNA)
RNA: GGGAGUUCUACAGUCCGACGAUCCUUGUAGUUUUUAACAUCCCACACUUCCAUUUGUCCUCGAAGAUUUCCAAAUCCAGCCAGCACUAAUAUAUGUCCAUGAGGGCUAUAGAAGGCUGCGUUGCGAGGACCAGUCCCAAAGUCCAACAGAGGAUUGAGCAUCA
B10: chr18:35732379:35732380:+_ENSMUSG00000037236_ENSMUST00000166793|perfect_dup|FALSE|FALSE (ssRNA)
RNA: GGGAGUUCUACAGUCCGACGAUCCAUUCUCUCAUACUCACUGUCAAAUUUAUGAUAGUUAUGCGAGGUCUCACCAAAAAAAGAAUCAUCCCUACACCUUUCUCCAUCUCUUAAUCUGUCAUCUUCAUAAUCCAUUCUGUCAUACAACAGAGGAUUGAGCAUCA
B11: 28365595_28365715_1176_CDS_ENSMUSG00000049643_ENSMUST00000067386|mouse|control|control (ssRNA)
RNA: GGGAGUUCUACAGUCCGACGAUCCUUACUCUUGGUGCUUGUGACCUGGCUGUCCUGUGCCUCGGACACAACGGCAGCCUUGCCCAGUCUCUGAAGGAUGCUGACUUUGGGCAGGGAAUCCGGCUUCUUCUCCAGCCCAGGGCGCAACAGAGGAUUGAGCAUCA
B12: chr1:163112212:163112213:-_ENSG00000143248_ENST00000313961|hu_hu|hu_hu_hu_mus_False|48_108 (ssRNA)
RNA: GGGAGUUCUACAGUCCGACGAUCUUUAUUUAUCCAGAAGAGUGAGUUACAUACUAGGCAAAGUAUUGGAUACAAUAAUCAGGAAACAAACACAAUUGGUCCAGAAUUUAAAACUUUAUGAGCGAAGUGCUGGCACAGGACUUACAACAGAGGAUUGAGCAUCA
B13: chr2:198351390:198351391:-_ENSG00000144381_ENST00000345042|hu_hu|hu_hu_hu_mus_False|1_8 (ssRNA)
RNA: GGGAGUUCUACAGUCCGACGAUCUCAUUCCCACCCUCCACAGAAAGGCUGCUUCUGAACUCUCAUGUGGUGACACAGCGCUACAGUCCUGAUGCUCACAGAACAGUAGAGAUGCCUCAGUGAUUUAUUAAGUUGAAAGCAGUACAACAGAGGAUUGAGCAUCA
B14: chr3:20017139:20017140:+_ENSG00000144566_ENST00000273047|hu_mus|motif|central (ssRNA)
RNA: GGGAGUUCUACAGUCCGACGAUCGAUAUCAUACACAACUAUGGCUGCUUGUGCUCCUCGGUAGUACAUUGGUGCGGAGCGGUGAUACCGUUCUUGACCAGCUGUAUCCCAUAUUUCAAAUUUUACUGUUGUGUCAUCAAGACACAACAGAGGAUUGAGCAUCA
B15: chr3:52742126:52742127:+_ENSG00000114902_ENST00000602728|hu_hu|FALSE|FALSE (ssRNA)
RNA: GGGAGUUCUACAGUCCGACGAUCGAAACAUUAAAAUGGUUAACUCAUAAUGAAUUAUAAAACUUUGAUAGUUACAUUGUACUAUCAUUUAUGAGGCAUUUAUUUUUCAUUAUUUACACCUGAAAGAAACUUCAUACUUGUGUGCAACAGAGGAUUGAGCAUCA
B16: chrX:109746815:109746816:+_ENSMUSG00000025529_ENSMUST00000071814|perfect_dup|FALSE|FALSE (ssRNA)
RNA: GGGAGUUCUACAGUCCGACGAUCUGUUUUAAAGUCACAGUGCCUGCACUGAUGAAUCUUCCUACCCUUAUGGAUAUCACUAUGCUUUUUGAGCUCAGAAGGACGAUGAAAACCUUUAUCACAGACCUCACAUUUGUGAGGAAACAACAGAGGAUUGAGCAUCA
B17: chr11:64088491:64088492:+_ENSG00000126432_ENST00000265462|hu_hu|motif|central (ssRNA)
RNA: GGGAGUUCUACAGUCCGACGAUCCACCAUGGAGAACCUCUUGAGACGUCGAUUCCCAAAGAUGGACACCAGCGAAUCAUCGGGUAAUAAGUCUGUCUCCUUCCCAAAGGCCCCAGUGGGAUCAGCCAGGAGCCGAACCUUGCCCAACAGAGGAUUGAGCAUCA
B18: chr2:34631547:34631548:+_ENSMUSG00000026864_ENSMUST00000100171|mus_mus|FALSE|FALSE (ssRNA)
RNA: GGGAGUUCUACAGUCCGACGAUCUGGGGGAGGGCCUCCACUUCCAUAGAGUUUGCUGAUAAUUGGCUGAACAAUUUCUUCUAGUUCCUUCUUUUUGGCUUUAAAGUCUUCAAUGUCCGCAUCCUGGUGGCUUUCCAGCCAUUCCAACAGAGGAUUGAGCAUCA
B19: chr4:144460044:144460045:+_ENSG00000153147_ENST00000283131|hu_mus|hu_hu_hu_mus_False|8_88 (ssRNA)
RNA: GGGAGUUCUACAGUCCGACGAUCACGGUCCAUAGCCUGAAGAUCAACUUGGGGAUUCCAAUCUGAGUCAUAUAAAAUGACUACAUCAGCAGUUGCAAGAUUGAUGCCCAGACCACCAGCACGUGUGCUUAACAUGAAUACAAACAACAGAGGAUUGAGCAUCA
B20: 72180598_72180718_2139_3pUTR_ENSG00000080371_ENST00000261263|human|control|control (ssRNA)
RNA: GGGAGUUCUACAGUCCGACGAUCAAAUGAAAGCUAUUGCAGAAGUGAAAUUCAACAUGAGCCACCCAAAUUCUUCUAAGGUAACCAUUCUAAAGCAAAAUCAGCAGAAGUCAUCUCUUCUAUAAUAACAAACAAAAAACCCAACAACAGAGGAUUGAGCAUCA
B21: chr14:103803487:103803488:+_ENSG00000100664_ENST00000558506|hu_mus|hu_hu_hu_mus_True|28_28 (ssRNA)
RNA: GGGAGUUCUACAGUCCGACGAUCGAGUUUAUGAUGUGUGUCAAGCAUGCCUCGGUACCCACAGGCUUUACAAGAAUUACCUAUUGUUUGCUUCUUUGGAUUGACAUGCAAAUCUGUUUCAGGAUUCUCACACUCAGGACAGAGCAACAGAGGAUUGAGCAUCA
B22: chr10:88205819:88205820:+_ENSMUSG00000060904_ENSMUST00000116234|mus_hu|FALSE|FALSE (ssRNA)
RNA: GGGAGUUCUACAGUCCGACGAUCCUUCAUUUCAGGGGAGAAGAAUGGACUGAAUUACUGUCUGCUUUUUAAUGUUUCAACUAACCAUUCCAUUGCCUCAUCAAGGCCGGUGCCUUUGGUUGCUGACGUUUUGAAUAUCUGCCACAACAGAGGAUUGAGCAUCA

This is one part of the list.

In this assay the target is T1, UNK ZnF1-3. Put plainly: nsRBNS (natural sequence RNA bind-n-seq); RBNS binding buffer (assumed for nsRBNS): 25 mM Tris pH 7.5, 150 mM KCl, 3 mM MgCl2, 0.01% Triton X-100, 500 ug/ml BSA, 20 U/ml SUPERase-In, 4 C; UNK is unkempt and MSI1 is Musashi-1; names of the RNAs are library labels; protein concentration not given here; high values mean tight binding.
Molecule B1 showed a binding signal of 0.527 enrichment R.
Next, B2: 1.38 enrichment R.
B3 yielded a binding signal of 0.918 enrichment R.
B4 gave a binding signal of 1.75 enrichment R.
In the case of B5 it was 0.738 enrichment R.
In the case of B6 it was 0.582 enrichment R; in that of B7, 0.872 enrichment R; in that of B8, 1.26 enrichment R.
Take B9: the binding signal turned out to be 1.16 enrichment R.
B10 came in with a binding signal of 1.49 enrichment R.
In the case of B11 it was 0.615 enrichment R; in that of B12, 1.85 enrichment R.
Next, B13: 1.65 enrichment R; B14: 0.812 enrichment R; B15: 0.714 enrichment R.
In turn, B16 displayed a binding signal of 0.678 enrichment R.
In the case of B17 it was 1.13 enrichment R; in that of B18, 0.347 enrichment R.
Turning to B19, the binding signal came out at 1.27 enrichment R.
For B20, the binding signal amounted to 2.29 enrichment R.
Next, B21: 1.14 enrichment R; B22: 0.763 enrichment R.
